Laboratory results as given in the supplement of paper PMC7826260.
The other results are listed elsewhere or left out. Cleavage of a single-stranded DNA pool by Rep nickase domains was read by sequencing at 3 µM enzyme and 37 °C for 1 h; the strands have 90 letters, of which the middle is given. Numbers give uncut DNA relative to the enzyme-free pool, as log2; more negative means more cut, near 0 not cut, and no call is made. Counts are relative to all reads; uncut strands gain when others are lost, and binding without cutting may add a little.

What was measured:
Assay in all cases: uncleaved DNA left, log2 of reads against the no-enzyme library (log2 ratio); higher = less cleavage (more negative = more Rep cleavage of the k-mer); sequences stand for … in CTCGTCCG…ACCGGAGA
[1] = tested on: T1, Rep nickase domain of Muscovy duck circovirus
T1 sequence (Rep 1-111, printed without the tag): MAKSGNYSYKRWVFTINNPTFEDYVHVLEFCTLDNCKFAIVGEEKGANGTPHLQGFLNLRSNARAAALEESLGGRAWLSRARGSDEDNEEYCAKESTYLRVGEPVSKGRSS
Procedure: (§1)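 A pool of 90-nt single-stranded DNAs with seven random bases just before the constant AC of the nick site (name = the seven bases) was cut by 3 µM recombinant His6-SUMO-tagged Rep nickase domain (300 nM DNA, 50 mM HEPES pH 8.0, 50 mM NaCl, 1 mM MnCl2, 1 h, 37 °C, three replicates). Uncut DNA was amplified and sequenced.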

[2] = tested on: T2, Rep nickase domain of banana bunchy top virus
T2 sequence (Rep 1-94, printed without the tag): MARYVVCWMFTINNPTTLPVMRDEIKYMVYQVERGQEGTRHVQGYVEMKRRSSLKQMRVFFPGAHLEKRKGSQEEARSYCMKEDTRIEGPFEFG
Procedure: as §1

[3] = tested on: T3, Rep nickase domain of cabbage leaf curl virus
T3 sequence (Rep 1-116, printed without the tag): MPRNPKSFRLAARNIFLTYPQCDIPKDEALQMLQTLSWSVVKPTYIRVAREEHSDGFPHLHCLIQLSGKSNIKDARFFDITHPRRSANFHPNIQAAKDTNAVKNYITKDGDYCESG
Procedure: as §1

[4] = tested on: T4, Rep nickase domain of chickpea chlorotic dwarf virus
T4 sequence (Rep 1-124, printed without the tag): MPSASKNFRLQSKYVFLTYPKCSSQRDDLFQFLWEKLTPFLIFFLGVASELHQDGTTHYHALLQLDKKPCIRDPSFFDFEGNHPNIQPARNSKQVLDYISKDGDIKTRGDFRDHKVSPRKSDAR
Procedure: as §1

[5] = tested on: T5, Rep nickase domain of faba bean necrotic yellows virus
T5 sequence (Rep 1-98, printed without the tag): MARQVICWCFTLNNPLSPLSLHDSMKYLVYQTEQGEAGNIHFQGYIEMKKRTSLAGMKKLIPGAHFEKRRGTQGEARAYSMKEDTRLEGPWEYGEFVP
Procedure: as §1

[6] = tested on: T6, Rep nickase domain of maize striate mosaic virus
T6 sequence (Rep 1-117, printed without the tag): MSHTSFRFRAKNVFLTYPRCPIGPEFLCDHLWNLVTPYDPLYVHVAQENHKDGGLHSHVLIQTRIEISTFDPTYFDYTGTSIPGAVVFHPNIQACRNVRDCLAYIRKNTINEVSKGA
Procedure: as §1

[7] = tested on: T7, Rep nickase domain of porcine circovirus 2
T7 sequence (Rep 2-116, printed without the tag): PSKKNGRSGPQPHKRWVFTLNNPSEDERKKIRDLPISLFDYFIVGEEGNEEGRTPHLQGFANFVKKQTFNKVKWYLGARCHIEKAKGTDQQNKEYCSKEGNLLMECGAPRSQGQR
Procedure: as §1

[8] = tested on: T8, Rep nickase domain of tomato golden mosaic virus
T8 sequence (Rep 1-124, printed without the tag): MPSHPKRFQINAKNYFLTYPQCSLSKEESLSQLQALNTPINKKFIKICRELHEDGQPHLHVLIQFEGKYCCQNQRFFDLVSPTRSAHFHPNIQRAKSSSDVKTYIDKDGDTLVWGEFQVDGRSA
Procedure: as §1

[9] = tested on: T9, Rep nickase domain of tomato yellow leaf curl virus
T9 sequence (Rep 1-136, printed without the tag): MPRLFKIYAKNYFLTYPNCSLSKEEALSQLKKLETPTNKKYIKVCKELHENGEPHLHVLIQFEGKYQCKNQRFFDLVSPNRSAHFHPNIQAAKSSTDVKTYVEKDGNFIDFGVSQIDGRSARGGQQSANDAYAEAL
Procedure: as §1

[10] = tested on: T10, Rep nickase domain of wheat dwarf virus
T10 sequence (Rep 1-137, printed without the tag): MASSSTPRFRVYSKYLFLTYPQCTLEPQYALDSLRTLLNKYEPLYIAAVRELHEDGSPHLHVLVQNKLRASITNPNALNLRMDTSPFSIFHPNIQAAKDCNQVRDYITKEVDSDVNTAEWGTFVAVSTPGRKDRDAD
Procedure: as §1

Sequence	uncleaved DNA left (log2) [1]	uncleaved DNA left (log2) [2]	uncleaved DNA left (log2) [3]	uncleaved DNA left (log2) [4]	uncleaved DNA left (log2) [5]	uncleaved DNA left (log2) [6]	uncleaved DNA left (log2) [7]	uncleaved DNA left (log2) [8]	uncleaved DNA left (log2) [9]	uncleaved DNA left (log2) [10]
ATAAAAG	0.138	0.0853	-0.687	-0.308	0.0416	-0.975	0.266	0.0779	0.0659	0.0497
GGAGCAT	0.222	0.272	1.02	2.19	0.183	2.44	0.347	0.208	0.164	0.315
AGCAATC	0.0704	0.0758	0.0627	0.415	0.0479	0.0285	-0.0224	0.0419	0.0513	0.081
TCAAAAA	-0.121	0.17	0.205	0.0273	0.103	-0.442	0.135	0.172	0.145	0.128
ACGGTCA	-0.0279	-0.0756	-0.115	-0.766	0.0157	-0.333	-0.104	0.0303	-0.0204	-0.1
ACCCTTC	-0.128	-0.0199	-0.0634	-0.169	0.057	-0.62	0.0899	-0.0217	-0.091	-0.0443
GAGCACT	-0.0621	-0.0741	-0.00977	0.245	-0.0366	1.42	-1.12	-0.113	-0.0436	0.0485
TCCAAGG	0.128	-0.0294	0.532	1.44	0.0611	1.77	0.19	0.194	-0.0798	0.132
GAGTCCG	0.122	0.00784	-0.609	-0.512	0.0433	-0.782	-0.41	-0.0497	0.0242	-0.0496
GAGTCAA	0.0353	0.141	0.457	1.12	0.00606	1.45	-1.7	0.0953	0.151	0.185
GTCGGTT	0.119	0.0167	0.382	0.723	0.0303	1.55	0.108	0.155	-0.0274	0.093
TATTTAA	-2.84	-0.32	0.0834	-0.427	0.0344	-0.244	-1.05	-0.0319	-0.0099	0.0853
GGGAAAC	0.0737	0.164	0.849	2.09	-0.0469	2.24	0.211	0.033	0.142	0.17
AAATTGC	0.0236	0.0435	-0.653	0.542	0.128	-0.232	0.167	0.0246	0.128	-0.0123
GAGGCAC	0.126	0.188	0.72	1.63	0.0625	1.96	0.217	0.126	-0.0116	0.159
CCTGATA	0.00392	-0.235	-0.374	-1.18	-0.0706	-0.467	-0.0571	-0.132	-0.134	-0.0716
AAAGTGC	0.0137	-0.0599	-0.592	-0.742	0.118	-1.34	0.142	0.0511	0.055	-0.0181
GGTTCAT	-0.0606	0.00215	0.73	1.84	-0.104	2.25	0.0783	-0.0401	0.0393	0.128
TCATCCC	-0.202	-0.114	0.00943	-0.132	-0.0565	-0.212	-0.0483	-0.0545	-0.0791	-0.0719
AAGCAAA	-0.0587	-0.0966	0.0331	-0.177	-0.136	-0.146	-0.0329	-0.0411	-0.0266	-0.0022

Sequence	uncleaved DNA left (log2) [1]	uncleaved DNA left (log2) [2]	uncleaved DNA left (log2) [3]	uncleaved DNA left (log2) [4]	uncleaved DNA left (log2) [5]	uncleaved DNA left (log2) [6]	uncleaved DNA left (log2) [7]	uncleaved DNA left (log2) [8]	uncleaved DNA left (log2) [9]	uncleaved DNA left (log2) [10]
TTTACGC	-0.0164	-0.0334	0.116	-0.53	0.0886	-0.0804	0.146	-0.03	-0.019	0.0291
ATCTCAC	0.00979	0.0716	-0.124	-0.237	-0.0204	-0.476	0.147	0.0983	0.0231	0.0361
CCGGACG	-0.0824	0.0206	-0.579	-0.354	-0.0562	-0.909	0.0183	0.0786	-0.16	-0.115
GGCAGAA	0.104	0.0449	0.7	1.49	0.162	1.82	0.245	0.0905	0.117	0.169
TTATCTC	-0.258	0.0465	-0.498	-0.47	-0.0733	0.222	-0.0714	-0.186	0.11	-0.0604
GTTTTAG	-0.0152	0.0169	0.0146	0.193	0.00142	-0.27	0.201	0.0513	0.0605	0.0354
CAAAGGG	-0.0362	-0.00634	-0.415	-0.416	0.0503	-1.02	0.175	-0.0083	0.0382	-0.0814
CGCAGGG	-0.0308	0.0773	-0.0131	0.326	0.158	-0.357	0.204	0.0284	-0.0334	0.0292
CAAGGTG	0.00662	0.0215	0.0341	0.801	0.0152	0.847	0.128	0.0679	-0.0487	0.0468
GAAAATA	-0.0192	-0.0242	0.107	-1.73	0.013	0.723	0.011	0.0657	0.0484	-0.00471
TCGTTTC	-0.0328	-0.111	0.106	0.0297	-0.162	-0.564	-0.236	-0.16	-0.123	-0.162
AGGGAAT	-0.0402	-0.0872	0.176	1.71	-0.243	1.8	0.132	-0.00474	-0.169	0.0298
GGAAAGA	-0.0185	0.0983	0.775	1.74	-0.0699	1.92	0.261	0.031	0.0423	0.136
TCAATAT	0.167	0.0315	0.133	-0.831	-0.00806	-0.407	-0.0309	0.0317	0.0201	0.0217
ATGGCCA	-0.0574	0.11	-0.00599	-0.214	-0.000284	-0.048	-0.0588	0.0892	0.17	0.0764
CATGTAC	0.0454	-0.0146	-0.134	-0.546	0.137	-0.814	0.127	0.0992	0.117	0.0507
GCAAGCA	0.0247	0.11	-0.0923	0.0584	0.147	-0.267	0.156	0.0615	0.0466	0.043
CATTTGC	0.0438	-0.04	-0.817	-0.41	0.107	-1.26	0.0821	-0.195	-0.00552	-0.0783
TTCCCGT	-0.00985	-0.0877	-0.195	-0.807	-0.132	-0.765	-0.0889	-0.00602	-0.0551	-0.146
ATTGATG	-0.0383	-0.0498	-0.476	-0.304	-0.014	-0.932	0.181	-0.00113	0.196	0.0343

Sequence	uncleaved DNA left (log2) [1]	uncleaved DNA left (log2) [2]	uncleaved DNA left (log2) [3]	uncleaved DNA left (log2) [4]	uncleaved DNA left (log2) [5]	uncleaved DNA left (log2) [6]	uncleaved DNA left (log2) [7]	uncleaved DNA left (log2) [8]	uncleaved DNA left (log2) [9]	uncleaved DNA left (log2) [10]
CTATTAC	-2.95	-0.169	-0.671	-2.79	0.123	-1	-3.29	-0.0476	0.114	-0.0956
GTCACAG	-0.0766	0.0668	0.247	0.64	-0.077	1.45	0.172	0.0841	-0.0085	0.0533
GAGACAA	0.103	0.115	0.905	2.19	0.0939	2.24	0.269	0.13	0.0546	0.238
TCCGCTG	-0.132	-0.0438	0.158	0.714	-0.0971	1.18	0.0115	-0.124	-0.344	-0.0859
ACCACGG	-0.069	-0.0595	-0.184	0.168	-0.0184	-0.416	0.0771	0.0896	-0.0997	-0.0791
ACCATGT	-0.0421	-0.0564	-0.462	-0.857	0.0231	-1.1	0.116	0.0597	0.00263	-0.158
CTAGATA	-0.0873	-0.027	-0.0627	-1.23	-0.0477	-0.293	0.0189	-0.0334	-0.0199	-0.0458
TTCGATC	0.0104	0.0235	0.374	0.339	0.0108	-0.0354	0.0518	-0.0216	0.077	0.0857
CGAGTTG	-0.00964	-0.00441	-0.095	0.561	-0.0856	1.11	-0.0904	0.0612	-0.0777	-0.00602
TCTTAAA	-0.103	-0.0654	-0.00912	-0.229	-0.0302	-0.299	-0.0718	0.0643	-0.0741	-0.0807
TCTTGGG	-0.0674	-0.0876	-0.661	-0.747	0.0608	-1.16	0.0831	0.0198	0.00576	-0.149
AACGAGT	0.107	0.0953	0.0366	0.00334	0.113	0.157	0.029	0.221	-0.0066	0.0886
AAGCGCA	0.0144	0.0153	0.181	1.18	0.0475	1.16	0.0634	0.11	-0.113	0.024
GTCGATG	-0.222	-0.141	0.161	0.519	-0.124	1.39	-0.163	0.00183	-0.124	-0.025
GTCTAGT	-0.144	0.0857	0.195	0.698	4.11e-05	1.66	-0.656	0.173	0.147	0.0616
TTCCATG	0.0291	0.0117	-0.325	-0.638	-0.0672	-1.19	0.1	-0.0726	-0.177	-0.0474
TTACCAG	-0.00889	-0.0462	-0.972	-1.93	-0.113	-1.2	-0.906	-0.107	0.0133	-0.0882
GCTCAGT	0.108	0.0471	0.0731	0.287	0.065	0.0366	0.114	0.0897	0.142	0.0302
